{"source": "PubChem BioAssay AID686978", "about": "(National Center for Advancing Translational Sciences (NCATS), 2013)", "note": "Several values for one entry are separate records, joined by “and”; a condition that tells them apart may be missing. Equal entries are not always repeated. Hit rate of the full screen: of about 420,000 compounds, about 64,000 (15%) were called active. Inconclusive means that the source gave no clear call. Such entries were picked first, then a sample of the others. The call rests on the fitted dose curve; in most records, active means well fitted inhibition curve with a large enough effect; inconclusive means small, poorly fitted or top-dose-only effect; inactive means flat fitted curve, though single readings scatter. No potency is given beside an inconclusive call; the fits are too rough. More than one record can exist for a structure, and the calls need not agree. On the % scale 0 is the no-effect control and ±100 the full control effect; potency means the concentration at half of the fitted maximal effect; tags describe the fitted curve by direction and shape.", "data": [{"assay": "qHTS for Inhibitors of human tyrosyl-DNA phosphodiesterase 1 (TDP1): qHTS in cells in absence of CPT; further: nearly all actives have a fitted effect of over 55% in size", "settings": "DT40 Tdp1-/- hTDP1 cells, no CPT, ATP luminescence, 48 h; activity change, negative = growth inhibition: at 46.2 µM (top of the series) unless noted", "procedure,_shortened": "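Luminescent ATP content (CellTiter-Glo) served as the growth readout. Knockout chicken DT40 cells expressing human TDP1 were exposed to compounds without camptothecin for a minimum 48 hr at 37 °C.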", "values": [{"smiles": "NC(=O)CSc1nnnn1-c1ccccc1Cl", "activity change, negative = growth inhibition": "inactive: -17.8%"}, {"smiles": "COCCn1c(=O)c(-c2ccc(OC)cc2)nc2cnc(OC)nc21", "Potency": "inconclusive [inhibitor, single point]"}, {"smiles": "O=C(NCc1ccco1)c1csc2c1CCCC2", "Potency": "inconclusive [inhibitor, partial curve]"}, {"smiles": "Cc1c2cnn(CC(=O)NCc3ccc(Cl)cc3)c(=O)c2c(C)n1Cc1ccc(F)cc1", "Potency": "inconclusive [inhibitor, single point]"}, {"smiles": "CC1(C)C(c2ccccc2)=[N+]([O-])CN1O", "activity change, negative = growth inhibition": "inactive: -26%"}, {"smiles": "COc1ccc(Oc2cc(C)c3cccc(C)c3n2)cc1", "Potency": "inconclusive [inhibitor, partial curve]"}, {"smiles": "Cc1ccc(CNC(=O)CO/N=C/c2ccc(C(C)(C)C)cc2)cc1", "Potency": "inconclusive [inhibitor, single point]"}, {"smiles": "Cc1ccc(NC(=O)NCCN2CCN(c3ccccc3)CC2)cc1Cl", "Potency": "inconclusive [inhibitor, single point]"}, {"smiles": "CCCCc1ccc(-c2nn[nH]n2)nc1", "Potency": "inconclusive [inhibitor, partial curve]"}, {"smiles": "COc1ccccc1-c1cc2c(c3c1ccn3C)C1CCC2C1", "note": "(centres undefined)", "Potency": "inconclusive [inhibitor, single point]"}, {"smiles": "CCOc1ccc2nc(NC(=O)C34CC5CC(CC(NC(C)=O)(C5)C3)C4)sc2c1", "Potency": "inconclusive [inhibitor, single point]"}, {"smiles": "Cc1ccc(N2C(=O)C3C(C2=O)C2C=CC3C23CC3)cc1", "note": "(centres undefined)", "activity change, negative = growth inhibition": "inconclusive: -33.9% [inhibitor]"}, {"smiles": "CN1CCC(=NOc2ccc([N+](=O)[O-])cc2)CC1", "activity change, negative = growth inhibition": "inactive: -29.9%"}, {"smiles": "COc1ccc(/C=C2/S/C(=N/N=C3\\CC4CCC3(C)C4(C)C)NC2=O)cc1", "note": "(centres undefined)", "activity change, negative = growth inhibition": "inactive: 2.35%"}, {"smiles": "O=C(Cc1ccccc1)N/N=C/c1cc(Br)cc(Br)c1O", "Potency": "inconclusive [inhibitor, single point]"}, {"smiles": "COC1=C(Nc2ccccc2)C(=O)c2ccccc2C1=O", "Potency": "active: 11.6 µM"}, {"smiles": "COC(=O)c1ccc(OC)c(CSc2nnc(COc3ccccc3)o2)c1", "Potency": "inconclusive [inhibitor, single point]"}, {"smiles": "O=C(NCCCc1ccccc1)c1ccc(CS(=O)Cc2ccccc2Cl)o1", "note": "(centres undefined)", "Potency": "inconclusive [inhibitor, single point]"}, {"smiles": "CC(=O)N(C(C)=O)N1C(=O)C2C3c4ccccc4C(c4ccccc43)C2C1=O", "note": "(centres undefined)", "Potency": "inconclusive [inhibitor, single point]"}, {"smiles": "Cc1cc(C)cc(NC(=O)CSc2ccc(-c3cccs3)nn2)c1", "Potency": "inactive and active: 20.6 µM"}, {"smiles": "CCN(C(=O)c1cc2c(=O)[nH]c3ccc(C)cc3c2s1)c1ccccc1F", "Potency": "inconclusive [inhibitor, partial curve]"}, {"smiles": "S=C(NCC1CCCO1)Nc1cc(Cl)c(Cl)cc1Cl", "note": "(centres undefined)", "Potency": "inconclusive [inhibitor, single point]"}, {"smiles": "Cc1cc(C)nc(/N=C(\\N)Nc2ccc(S(N)(=O)=O)cc2)n1", "Potency": "inconclusive [inhibitor, single point]"}, {"smiles": "Cc1ccc(S(=O)(=O)N2CCCC(C(=O)NCCc3ccc4c(c3)OCO4)C2)cc1", "note": "(centres undefined)", "Potency": "inconclusive [inhibitor, partial curve, poor fit]"}, {"smiles": "CCCc1nc2ccccc2c(C(=O)OCC(=O)c2ccc3c(c2)NC(=O)CO3)c1CC", "Potency": "inconclusive [inhibitor, partial curve]"}, {"smiles": "Cc1c(S(=O)(=O)N2CCN(C(c3ccccc3)c3ccccc3)CC2)c(=O)n(C)c(=O)n1C", "Potency": "inconclusive [inhibitor, single point]"}, {"smiles": "COc1ccc(C2C(C(=O)c3ccccc3)=C(C)Nc3nc4ccccc4n32)c(OC)c1", "note": "(centres undefined)", "Potency": "inconclusive [inhibitor, single point]"}, {"smiles": "COc1ccc(OC)c(N(CC(=O)Nc2ccc3c(c2)OCO3)S(=O)(=O)c2ccccc2)c1", "Potency": "inconclusive [inhibitor, single point]"}, {"smiles": "Cc1nnc(SCC(=O)N2N=C(c3ccc(Cl)cc3)CC2c2ccco2)[nH]c1=O", "note": "(centres undefined)", "Potency": "inconclusive [inhibitor, single point]"}, {"smiles": "COc1ccc(CCNC(=O)c2ccccc2NC(=O)C2=C(C)OCCS2)cc1OC", "Potency": "inconclusive [inhibitor, single point]"}, {"smiles": "COCCNc1nc(-c2ccccc2)nc2ccccc12", "Potency": "inconclusive [inhibitor, single point]"}, {"smiles": "COc1cccc(-c2cnc(C(O)c3cc(C)cc(C)c3)[nH]2)c1", "note": "(centres undefined)", "Potency": "inconclusive [inhibitor, single point]"}, {"smiles": "Cc1cc(N2CCN(S(=O)(=O)c3ccc(C)c(C)c3)CC2)c2ccccc2n1", "Potency": "inconclusive [inhibitor, single point]"}, {"smiles": "CN(C)C1=NC(=O)/C(=C\\c2ccccc2)S1", "Potency": "inconclusive [inhibitor, single point]"}, {"smiles": "Cc1ccc2nc(SCC(=O)Nc3ccc(Cl)cc3)nc(=O)n2c1", "Potency": "inconclusive [inhibitor, single point]"}, {"smiles": "O=C(Nc1ncccn1)c1ccc([N+](=O)[O-])o1", "Potency": "inconclusive [inhibitor, single point]"}, {"smiles": "Cc1cc(-c2ccccc2)nc2oc(C(=O)NN)c(N)c12", "Potency": "inconclusive [inhibitor, single point]"}, {"smiles": "O=C(CN1CCOc2ccccc21)N1CCN(c2cccc(Cl)c2)CC1", "Potency": "active: 29.1 µM"}, {"smiles": "CNC(=O)c1c(NC(=O)/C=C/c2ccccc2)sc2c1CCC2", "Potency": "inconclusive [inhibitor, single point]"}, {"smiles": "O=C(CCCN1C(=O)/C(=C\\c2cccs2)SC1=S)Nc1cc([N+](=O)[O-])ccc1O", "Potency": "inconclusive [inhibitor, single point]"}, {"smiles": "Cc1ccc(S(=O)(=O)N2CCCCC2)cc1", "activity change, negative = growth inhibition": "inactive: 2.41%"}, {"smiles": "COCCCNC(=O)c1cnc2sc(N3CCCCC3)nn2c1=O", "activity change, negative = growth inhibition": "inactive: -12.4%"}, {"smiles": "CCCNC(=O)C(=O)NCC(c1ccc2c(c1)OCO2)N1CCN(c2ccc(F)cc2)CC1", "note": "(centres undefined)", "Potency": "inconclusive [inhibitor, single point]"}, {"smiles": "COc1ccc(NC(=O)CCn2nc(C)cc2C)cc1", "activity change, negative = growth inhibition": "inactive: 0.529%"}, {"smiles": "COC(=O)c1ccc(/C=C/C(=O)c2ccc(OC)c(OC)c2)cc1", "Potency": "inconclusive [inhibitor, single point]"}, {"smiles": "COc1ccc(CN2C(=O)C(CC(C)C)Nc3ncnc(N4CCCCC4)c32)cc1", "note": "(centres undefined)", "Potency": "inconclusive [inhibitor, single point]"}, {"smiles": "O=C(CCc1nnc(C2CCCCC2)o1)NCCCOc1cccnc1", "activity change, negative = growth inhibition": "inactive: -5.55%"}, {"smiles": "COc1cc(NS(=O)(=O)c2ccc(NC(=O)c3ccc(Cl)cc3Cl)cc2)nc(OC)n1", "activity change, negative = growth inhibition": "inactive: -19.5%"}, {"smiles": "O=S(=O)(N/N=C/c1cccnc1)c1ccc(Cl)c(Cl)c1", "activity change, negative = growth inhibition": "inactive: -24.8%"}, {"smiles": "O=C(NCC1CCCO1)C1CCCN(S(=O)(=O)c2cccc(C(F)(F)F)c2)C1", "note": "(centres undefined)", "activity change, negative = growth inhibition": "inactive: -22.5%"}, {"smiles": "CCOc1cc(/C=C(/C#N)C(=O)Nc2ccc(O)cc2)cc(Br)c1O", "Potency": "active: 0.92 µM"}, {"smiles": "CCCCCC(=O)N1C[C@H](O)[C@@H](n2cc(-c3ccc(F)cc3)nn2)C[C@@H]1c1ccc(OC)cc1", "Potency": "inconclusive [inhibitor, single point]"}, {"smiles": "CCOc1ccc(NC(=O)Cn2nnc(-c3nc(-c4ccncc4)no3)c2N)cc1", "activity change, negative = growth inhibition": "inactive: -10.9%"}, {"smiles": "Cc1nn(C)cc1S(=O)(=O)N1CCN(c2ccccc2)CC1", "activity change, negative = growth inhibition": "inactive: 1.89%"}, {"smiles": "CCOc1ccc(NC(=S)NC(=O)/C=C/c2ccco2)cc1", "Potency": "active: 18.4 µM"}, {"smiles": "Cc1cc(C)n(-c2nc3ccccc3nc2N2CCN(C(=O)c3ccc(Cl)cc3)CC2)n1", "Potency": "inconclusive [inhibitor, single point]"}, {"smiles": "N#C/C(=N\\Nc1ccc(S(=O)(=O)N2CCCCCC2)cc1)C(N)=S", "Potency": "inconclusive [inhibitor, single point]"}, {"smiles": "CCc1ccc(C(c2ccc(CC)cc2)C(Cl)Cl)cc1", "activity change, negative = growth inhibition": "inactive: -0.133%"}, {"smiles": "CCCCc1ccc(NC(=S)NCc2cccc(OC)c2)cc1", "Potency": "inconclusive [inhibitor, single point]"}, {"smiles": "COc1ccccc1N1CCN(C(=O)Cn2nnc(-c3cccs3)n2)CC1", "activity change, negative = growth inhibition": "inactive: -19.7%"}, {"smiles": "CC(NCC(=O)Nc1ccccc1C(=O)NC1CC1)c1cccc(Cl)c1", "note": "(centres undefined)", "Potency": "inconclusive [inhibitor, single point]"}, {"smiles": "O=C1OC[C@H]2CCCN2C(=O)[C@@H](CC(=O)N(CCO)Cc2ccccc2)C/C=C\\CC[C@@H]1Cc1ccc(F)cc1", "Potency": "active: 20.6 µM"}, {"smiles": "Cc1cccc(C)c1NC(=O)C(c1ccc(C#N)cc1)n1c(=O)c(-c2ccco2)nc2ccccc21", "note": "(centres undefined)", "Potency": "inconclusive [inhibitor, partial curve]"}, {"smiles": "COc1cc(C(=S)N2CCOCC2)cc(OC)c1OC(=O)c1ccccc1[N+](=O)[O-]", "activity change, negative = growth inhibition": "inconclusive: -43.5% [inhibitor]"}, {"smiles": "COc1ccc(CCNC(=S)NC(=O)c2ccccc2)cc1C", "Potency": "inconclusive [inhibitor, single point]"}, {"smiles": "Cc1ccc(-c2csc(NC(=O)c3ccco3)n2)cc1C", "Potency": "inconclusive [inhibitor, partial curve, poor fit]"}, {"smiles": "O=C(Cc1ccc(OCCc2ccccc2)cc1)NO", "Potency": "inconclusive [inhibitor, single point]"}, {"smiles": "CCOC(=O)c1ccc(NC(=O)CC(=O)Nc2ccc3nc4n(c(=O)c3c2)CCCCC4)cc1", "Potency": "inconclusive [inhibitor, full curve]"}, {"smiles": "Cc1nn2c(C)c(C(=O)NCCc3ccccc3)cnc2c1-c1ccccc1", "Potency": "inconclusive [inhibitor, single point]"}]}]}
